“And” between values parts separate entries of the source, which are not always exact repeats. Equal values may be shown once.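 Method: 48-hour compound exposure of cells in 96-well plates, five concentrations, linear interpolation of endpoints. GI50: concentration for 50% inhibition of growth. At the TGI there is no net growth.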
Test system: NCI-H322M lung
Experiment: NCI tumour cell line growth inhibition, 48 h

| Structure (SMILES) | GI50 | TGI |
| --- | --- | --- |
| COc1cc2c(cc1F)C(c1ccccc1Cl)=Nc1c(n[nH]c1C)N2 | 12.6 µM | 27.4 µM |
| CCN(CCN(CC)C(=O)Nc1ccccc1)C(=O)Nc1ccccc1 | – | > 100 µM |
| Oc1cccc2c1NCCC2 | 2.8 µM | > 100 µM |
| N#CCCNc1nonc1-c1nc2ccccc2n1CC(=O)c1ccc(NC(=O)[C@@H](N)CCCCN)cc1 | 0.232 µM | > 100 µM |
| C[N+](C)(C)c1ncnc2c1ncn2C1CCCO1 (centres undefined) | – | > 100 µM |
| O=C(/C=C/c1ccc(Cl)c(Cl)c1)c1cccc2ccccc12 | – | 29.8 µM |
| N#Cc1nc(C#N)n(S(=O)(=O)c2ccccc2)c1NS(=O)(=O)c1ccccc1 | – | > 100 µM |
| Cc1ccccc1C(=O)C1CCCCC1O (centres undefined) | – | > 100 µM |
| C/C(=N\O)c1cccc(Nc2cc(-n3ccnc3)c3ccccc3n2)c1 | 18.6 µM | 40.1 µM |
| O=C1CCCC/C1=C\c1ccc(Cl)c(Cl)c1 | – | 66.3 µM |
| ClC1=C(Cl)C(Cl)(Cl)c2c3c(c4c(c21)C(Cl)(Cl)C(Cl)=C4Cl)C(Cl)(Cl)C(Cl)=C3Cl | – | > 100 µM |
| O=c1[nH]nc(-c2ccccc2)n1O | – | > 100 µM |
| O=C(O)CCNS(=O)(=O)c1ccc([N+](=O)[O-])cc1 | – | > 100 µM |
| C=CCC1(C)CCCN(Cc2ccccc2)C1=O (centres undefined) | – | > 10 µM |
| Nc1ccc(Nc2cc(=O)[nH]c(=O)[nH]2)cc1Cl | – | > 100 µM |
| COc1cc2cc(Oc3ccc(NC(=O)c4ccc(Cl)c(Cl)c4)cc3)c(C)nc2cc1OC | > 100 µM | > 100 µM |
| N#CC1(C#N)C(c2ccccc2)C=CC12OCCCO2 (centres undefined) | – | > 100 µM |
| CCc1ccc2c(c1)N(CC(C)CN(C)C)c1ccccc1S2 (centres undefined) | – | 17.2 µM |
| CC1(C)CC(=O)c2c(nc3c4c([nH]c(-c5ccc(Br)cc5)c24)CC(C)(C)C3)C1 | – | > 100 µM |
| Nc1nc2c(C(=O)O)c3ccc([N+](=O)[O-])cc3c(=O)n2c2ccccc12 | – | > 100 µM |
| CCc1c(C)nc2sc3c(N)ncnc3c2c1C | > 25 µM | > 25 µM |
| O=C1Cc2c([nH]c3ccc(C(=O)O)cc23)-c2ccccc2N1 | – | > 100 µM |
| CCOC(=O)c1cc2c(cc1Cl)SC(=Nc1ccccc1)N(S(=O)(=O)c1ccc(Br)s1)S2(=O)=O | 20 µM | 50 µM |
| c1cc(N2CCN(c3ccc(C4=NCCCN4)cc3)CC2)ccc1C1=NCCCN1 | > 41.9 µM | > 95.6 µM |
| CC1c2ccccc2CCN1c1ccc(CO)c(Cl)c1 (centres undefined) | 2.6 µM | 23 µM |

| Structure (SMILES) | GI50 | TGI |
| --- | --- | --- |
| Nc1nc(N)c(CCCCc2ccccc2)c(N)n1 | – | > 100 µM |
| CCOC(=O)c1c[nH]c2ccc3c(c2c1=O)S(=O)(=O)CC3 (tested in a mixture with another compound) | – | > 100 µM |
| c1cc(-c2cn3c(n2)SCC3)ccn1 | – | > 100 µM |
| CN=C1OC2(c3ccccc3)C3=C(OC(=NC)N2C)C(=O)OC3(c2ccccc2)N1C (centres undefined) | – | > 100 µM |
| c1ccc2c(c1)CCc1c-2n[nH]c1-c1[nH]nc2c1CCc1ccccc1-2 | – | > 100 µM |
| CCCC(S(=O)(=O)c1ccccc1)S(=O)(=O)c1ccccc1 | – | > 100 µM |
| NNc1nnc(-c2nnc(NN)o2)o1 | – | > 10 µM |
| CC(C)(C)OC(=O)NCCCCC(N)NC(=O)c1ccccc1 (centres undefined) | – | > 100 µM |
| CC1=C(C(=O)Nc2ccc(Cl)c(Cl)c2)C(c2ccc([N+](=O)[O-])cc2)C(C(=O)Nc2ccc(Cl)c(Cl)c2)=C(C)N1 | – | > 100 µM |
| COc1cc(C(=O)c2cc(C)c3[nH]c4ccc(O)cc4c3c2C)cc(OC)c1OC | 0.0538 µM | > 100 µM |
| CN(C)CCc1c2c(nc3ccccc13)C(=O)c1cccnc1C2=O | – | 2.55 µM |
| CC1C=CC(OC(=O)C(C)(O)CCC(O)(C(=O)OC2CC(O)C(C(C)C)CC2(C)O)C(C)C)(C(C)C)CC1 (centres undefined) | 0.848 µM | 2.28 µM |
| COc1ccc(CNc2cc(=O)n(C)c(=O)[nH]2)cc1 | – | > 100 µM |
| NC(N)=NCCC(O)(P(=O)(O)O)P(=O)(O)O | – | > 100 µM |
| CN1CCN(CCCCCN=c2cc3c(=O)n(CCCCCN4CCN(C)CC4)c(=O)c4c(NCCCCCN5CCN(C)CC5)cc5c(O)n(CCCCCN6CCN(C)CC6)c(=O)c2c5c4-3)CC1 | 1.98 µM | 5.13 µM |
| CC(=O)OCC1OC(OCCCOP(=S)(OCCC#N)OCC2OC(n3ccc(N)nc3=O)C(OC(=O)c3ccccc3)C2OC(=O)c2ccccc2)C(OC(C)=O)C(OC(C)=O)C1OC(C)=O (centres undefined) | – | > 100 µM |
| NC1=NC(=O)C(CC(=O)Nc2ccc(Cl)cc2Cl)S1 (centres undefined) | – | > 100 µM |
| CC(C)/C(Cl)=N/OC(=O)Nc1ccc(Cl)c(Cl)c1 | – | 30.1 µM |
| O=C1c2ccccc2N2OC3(N4CCCC4)CCCCC3C12c1ccccc1 (centres undefined) | – | > 100 µM |
| COc1ccc(/C=C(/C)[N+](=O)[O-])cc1OC | 5.15 µM and 4.18 µM | 10.2 µM and 15.1 µM |
| CN1CCc2nc3sc(C(N)=O)c(N)c3c(-c3cccs3)c2C1 | 3.85 µM | 88.5 µM |
| Clc1ccc2oc(CCc3ccccc3)nc2c1 | – | > 100 µM |
| O=C1N[C@@H]2C(=C[C@H](O)[C@@H](O)[C@H]2O)c2cc3c(c(O)c21)OCO3 | – | 0.0903 µM |
| CC(CO)(Nc1ccc([N+](=O)[O-])cc1[N+](=O)[O-])C(=O)O (centres undefined) | – | > 100 µM |
| Oc1cc(-n2cccn2)c(O)cc1-n1cccn1 | – | > 87.3 µM |

| Structure (SMILES) | GI50 | TGI |
| --- | --- | --- |
| CCN1C(=O)N(CC)C2C1NN=c1s/c(=C\c3ccc(F)cc3)c(=O)n12 (centres undefined) | 0.813 µM | > 100 µM |
| N#CCCC1(CCC#N)CCCCCCCCC(CCC#N)(CCC#N)C(O)C1O (centres undefined) | – | > 100 µM |
| CC(C)(CCC(C)(C)N1OC1c1ccccc1)N1OC1c1ccccc1 (centres undefined) | – | > 100 µM |
| NC(Cc1ccc(S(=O)(=O)O)cc1)C(=O)NC(Cc1ccc(S(=O)(=O)O)cc1)C(=O)NC(Cc1ccc(S(=O)(=O)O)cc1)C(=O)NC(Cc1ccc(S(=O)(=O)O)cc1)C(=O)O (centres undefined) | – | > 100 µM |
| Cc1cc2c(cc1C)[n+](=O)c(C(=O)c1ccccc1)c(C(F)(F)F)n2[O-] | – | 49.7 µM |
| CC1=NN(c2ccccc2)C(=O)/C1=C\c1ccc([N+](=O)[O-])cc1 | – | 73.3 µM |
| COc1ccc(-c2cc(=O)c3c(O)cccc3o2)c(OC)c1OC | – | > 100 µM |
| CCOC(=O)Cn1nnc2ccc(Nc3nc4ccccc4nc3-c3ccccc3)cc21 | – | > 100 µM |
| O=C(NNS(=O)(=O)c1ccc(Cl)cc1Cl)c1cccnc1Nc1ccc(Cl)cc1 | 14.9 µM | 40.5 µM |
| CNNC(=NS(=O)(=O)c1cc(C#N)c(NNC)cc1S)NNC | – | > 10 µM |
| CCN(CC)c1nnc(CCCCCCCCc2nnc(N(CC)CC)o2)o1 | – | > 100 µM |
| CN1CCN(c2ccc3c(c2)NCC(=O)N3)CC1 | – | > 100 µM |
| CC(C)(C)NC(=O)CCC1C(C(=O)NC(C)(C)C)C2(Cl)C(Cl)=C(Cl)C1(Cl)C2(Cl)Cl (centres undefined) | – | > 100 µM |
| CC(C)(C)c1cc2nc(c1)C(C(F)(F)F)(C(F)(F)F)OB(Br)OC2(C(F)(F)F)C(F)(F)F | – | 4.75 µM |
| COC(=O)C(C(=O)C(=O)Nc1ccc([N+](=O)[O-])cc1)c1nc2ccc([N+](=O)[O-])cc2[nH]c1=O (centres undefined) | – | > 100 µM |
| O=C1C(OCCOc2ccccc2)=C(OCCOc2ccccc2)C(=O)c2ccccc21 | 21.1 µM | > 100 µM |
| N#CCN1C(=O)c2cc([N+](=O)[O-])cc3cc([N+](=O)[O-])cc(c23)C1=O | – | > 93.3 µM |
| Cc1cccc(NC(=O)/C(=N\N)C(c2cnc3ccc([N+](=O)[O-])cc3n2)[N+](=O)[O-])c1C (centres undefined) | – | > 100 µM |
| C1CSCCSCCCSCCSCCCSCCSCCCSCCSC1 | – | > 100 µM |
| O=C(NCCNCCO)c1cccc2ccc(-c3ccccc3)nc12 | – | 20.2 µM |
| Cc1cc(NS(=O)(=O)c2ccc(NC(=O)c3cccc4c(Nc5ccc(S(N)(=O)=O)cc5)c5ccccc5nc34)cc2)no1 | – | > 100 µM |
| CC(=O)/C(=C\c1ccccc1O)C(=O)Nc1ccccc1C | – | 57.2 µM |
| CN(CCCNC(=O)c1cc(-c2ccccc2)nc2ccccc12)CCCNC(=O)c1cc(-c2ccccc2)nc2ccccc12 | – | 18.8 µM |
| Cn1ccnc1Oc1ccc(Cl)cc1 | – | 40.2 µM |
| CCOc1ccc(NC(=O)CCc2nnc(SC)o2)cc1 | – | > 100 µM |

| Structure (SMILES) | GI50 | TGI |
| --- | --- | --- |
| COc1ccc(/C=C(\C)[N+](=O)[O-])cc1OC | 7.83 µM | 21.4 µM |
| O=C1C=C(O)C(=Cc2c(O)cc(O)cc2O)C(O)=C1 | – | > 100 µM |
| C=C1CC[C@@H](C)[C@](C)(CCc2ccoc2)C/C=C\C=C/1C(=O)O | – | > 100 µM |
| COc1ccc(Nc2ccc([N+](=O)[O-])cc2[N+](=O)[O-])cc1CN(CCCl)CCCl | 2.6 µM | 11.8 µM |
| COc1cccc(C2c3cc4c(cc3OC3COC(=O)C32)OCO4)c1OC (centres undefined) | – | > 100 µM |
| COc1ccc2c(c1)C(=O)c1c-2c(OCCN(C)C)nc2ccccc12 | 2.46 µM | 9.86 µM |
| COc1cc(/C=C/c2ccc3c(Br)cc(Br)c(O)c3n2)ccc1O | 2.28 µM | 17.6 µM |
| COc1cc(O)c2c(=O)c(OC)c(-c3ccc(OC)c(OC)c3)oc2c1 | – | > 100 µM |
| Nc1ncnc2c1ncn2[C@@H]1O[C@H](COC(c2ccccc2)(c2ccccc2)c2ccccc2)[C@@H](OC(=S)Oc2ccccc2)[C@@H]1F | – | 33.5 µM |
| Cc1cnc2c(c1C)C(=O)c1ccccc1C2=O | – | > 100 µM |
| C[n+]1c2ccccc2nc2c(N)cc(N)cc21 | 3.89 µM | 61.7 µM |
| N[C@H](COCc1ccccc1)c1ccccc1 | – | 81 µM |
| N#C/C(C(=S)NCc1ccccc1)=C(/N)N1CCCC1 | – | > 100 µM |
| COc1ccc(-c2[nH]c3ccccc3c2CCNS(=O)(=O)c2ccc(C)cc2)cc1 | – | > 10 µM |
| CO/N=C1/c2sccc2[C@H](NC(=O)C(Cc2ccccc2)NC(=O)OC(C)(C)C)[C@@H]1O (some centres undefined) | – | > 100 µM |
| O=C(c1ccco1)N(C(=O)N1CCN(c2ccccc2)CC1)S(=O)(=O)c1ccccc1 | – | > 100 µM |
| CN=C(Nc1cccc(C(F)(F)F)c1)SCc1ccc(N=C=S)cc1 | – | 31.3 µM |
| COc1ccc(OC(=O)CC2Cc3cc(OC)c(OC)c(OC)c3-c3ccc(SC)c(=O)cc32)cc1 (centres undefined) | – | > 100 µM |
| CCCc1[nH]c2ccccc2c1-c1c(CCC)[nH]c2ccccc12 | – | 27.9 µM |
| Nc1n[nH]c2ccc([C@@H]3Nc4cc5c(cc4[C@H]4C6CCC(C6)[C@@H]34)C(=O)NC5)cc12 (some centres undefined) | 0.984 µM | > 100 µM |
| O=c1[nH]c(Nc2nc3ccccc3[nH]2)nc(O)c1Cc1ccccc1 | – | > 100 µM |
| O=C1OC(=O)c2c1c(-c1ccccc1)nc1ccccc21 | – | > 100 µM |
| COc1ccc(C2=NOC(N)(c3ccc(OC)cc3)C2)cc1 (centres undefined) | – | > 100 µM |
| C[C@@H]1O[C@@H](O[C@@H]2[C@@H](O)[C@H](OCCc3ccc(O)c(O)c3)O[C@H](CO)[C@H]2OC(=O)/C=C/c2ccc(O)c(O)c2)[C@H](O)[C@H](OC2OC[C@](O)(CO)[C@H]2O)[C@H]1O (some centres undefined) | 84.8 µM | > 100 µM |
| Cc1ccc(NC(=O)C(=O)C(C(=O)/C=C/c2ccccc2)C2OC(=O)c3ccccc32)c(C)c1 (centres undefined) | – | > 100 µM |

Reference: PubChem BioAssay (NCI)
